# Out of some 310,000 compounds screened, about 2,200 (0.71%) showed an effect of 50% or more. The effect is printed as a negative number. The list shows a part of the results.
# Molecular target: human ether-à-go-go-related gene (hERG) potassium channel (human, UniProt Q12809)
# Assay: primary screen, population patch clamp on CHO cells stably expressing hERG
# Sequence of human ether-à-go-go-related gene (hERG) potassium channel (Q12809 whole entry, looked up): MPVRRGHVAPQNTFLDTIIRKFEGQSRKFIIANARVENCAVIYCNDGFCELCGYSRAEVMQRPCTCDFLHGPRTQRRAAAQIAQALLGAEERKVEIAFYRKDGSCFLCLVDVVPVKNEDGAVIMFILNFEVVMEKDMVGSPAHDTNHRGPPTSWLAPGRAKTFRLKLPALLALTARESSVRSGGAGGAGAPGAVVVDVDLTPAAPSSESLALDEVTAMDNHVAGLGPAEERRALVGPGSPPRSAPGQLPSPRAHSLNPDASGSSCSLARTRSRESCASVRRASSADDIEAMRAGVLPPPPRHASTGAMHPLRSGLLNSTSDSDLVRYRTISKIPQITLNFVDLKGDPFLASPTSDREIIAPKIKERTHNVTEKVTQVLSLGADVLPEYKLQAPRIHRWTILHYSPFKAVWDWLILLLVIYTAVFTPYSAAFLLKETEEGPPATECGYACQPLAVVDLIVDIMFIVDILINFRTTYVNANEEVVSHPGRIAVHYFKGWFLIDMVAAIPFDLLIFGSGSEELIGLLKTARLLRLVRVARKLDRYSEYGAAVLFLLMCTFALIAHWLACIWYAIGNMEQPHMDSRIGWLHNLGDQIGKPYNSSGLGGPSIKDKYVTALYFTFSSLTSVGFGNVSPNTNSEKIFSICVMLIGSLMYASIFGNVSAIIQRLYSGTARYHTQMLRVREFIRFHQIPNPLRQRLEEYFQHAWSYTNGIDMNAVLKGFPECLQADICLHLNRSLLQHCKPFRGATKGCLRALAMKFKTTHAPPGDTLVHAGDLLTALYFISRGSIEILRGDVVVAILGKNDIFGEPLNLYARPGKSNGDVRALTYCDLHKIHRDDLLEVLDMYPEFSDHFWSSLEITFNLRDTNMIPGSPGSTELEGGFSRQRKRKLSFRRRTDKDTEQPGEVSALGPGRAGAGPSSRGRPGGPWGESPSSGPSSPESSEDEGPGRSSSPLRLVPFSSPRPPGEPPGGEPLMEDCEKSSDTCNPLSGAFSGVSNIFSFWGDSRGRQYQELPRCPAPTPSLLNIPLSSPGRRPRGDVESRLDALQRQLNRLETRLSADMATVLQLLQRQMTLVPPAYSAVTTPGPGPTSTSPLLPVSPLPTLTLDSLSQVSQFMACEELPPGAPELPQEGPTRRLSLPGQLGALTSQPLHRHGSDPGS
row,SMILES,"hERG current change (%, negative = inhibition) at 1uM [%]"
1,CC(=O)Nc1ccc(S(=O)(=O)NCCC(=O)OC(C)C(=O)NC2(C#N)CCCCC2)cc1 (stereo not shown),7.84
2,Cc1cc(NC(=O)CC(C)(C)C)nc2c1c(=O)oc1ccccc12,12
3,O=C(NCCc1ccccc1)C1CCCN(c2cnccn2)C1 (stereo not shown),16.6
4,O=C(CNC(=O)c1ccc(Br)o1)Nc1ccccc1,13.6
5,CCC(C)NS(=O)(=O)c1ccc(OCC(=O)NCc2ccc(OC)cc2)cc1 (stereo not shown),19.8
6,O=C(Nc1ccc(N2CCOCC2)cc1)NC1CCCCC1,12
7,CN(C)/C=N/c1cc(=O)[nH]c(=O)n1C,11.1
8,COc1cccc(OCC(O)CN2CCC(Cc3ccccc3)CC2)c1.Cl (stereo not shown),-55.6
9,Cc1nc(NC(=S)NC(=O)COc2ccc(Cl)cc2)ccc1Br,7.38
10,COc1ccc(C(=O)N(NC(=O)Oc2ccccc2)C(C)(C)C)cc1,7.17
11,CCSc1ncc(C#N)c(=O)[nH]1,19.7
12,CC1CCc2sc(C(=O)NNC(=O)c3ccncc3)cc2C1 (stereo not shown),14.8
13,Cc1ncc([N+](=O)[O-])n1CCOC(=O)c1ccccc1,12.7
14,CCCNC(=O)C12CCC(C)(C(=O)O1)C2(C)C (stereo not shown),15.3
15,CCCCOc1ccc(C(=O)N(Cc2ccccc2)C2CCS(=O)(=O)C2)cc1 (stereo not shown),10.7
16,Cc1ccc(/C=C2\C(=O)NC(=O)N(Cc3ccccc3Cl)C2=O)o1,11
17,CC(C)(C)c1ccc(C(=O)N2CCC(C(=O)c3ccccc3)CC2)cc1,11.7
18,COc1ccccc1CN(C)C(=O)C(NC(=O)Cc1cccc2ccccc12)C(C)C (stereo not shown),13.3
19,O=C(COc1ccc(Br)cc1)N1CCc2ccccc21,15.8
20,Cc1ccc(/C=N/NC(=O)Cc2cccn2C)s1,3.47
21,Cc1ccc(C(C)C)cc1OCCCCN1CCCC1,-6.15
22,CCOc1ccc(NC(=S)N2CCC(C(N)=O)CC2)cc1,8.76
23,O=C(NC(=O)c1ccccc1)Nc1cccc(S(=O)(=O)N2CCCCC2)c1,-21.2

row,SMILES,"hERG current change (%, negative = inhibition) at 1uM [%]"
1,Cc1nc2ccccc2n1Cc1ccccc1Br,4.91
2,C=CCn1c(SCC(=O)NCc2ccco2)nnc1C1CCCCC1,9.88
3,NC(=S)N/N=C1\CC(c2ccc3c(c2)OCCCO3)Oc2ccc(F)cc21 (stereo not shown),11.4
4,COc1cc(C2C(C(=O)c3cc4ccccc4o3)=C(O)C(=O)N2c2cc(C)on2)cc(OC)c1OC (stereo not shown),15.4
5,O=C(Nc1cc(Cl)ccc1O)C1CC(c2ccccc2O)=NO1 (stereo not shown),8.4
6,Cc1ccc(-c2cc(C(=O)N/N=C/c3ccccc3O)n[nH]2)o1,12.8
7,CN1C(=O)S/C(=C\c2ccc(-n3cncn3)cc2)C1=O,6.08
8,COC(=O)C1CCN(C(=O)c2ccc(NC(C)=O)cc2)CC1,2.37
9,COCCNC(=O)C(c1cccc(OC)c1)N(C(=O)Cn1nnc2ccccc21)c1cccnc1 (stereo not shown),13.5
10,CCN(CC)S(=O)(=O)c1ccc(Cl)c(C(=O)Nc2nncs2)c1,15.1
11,CN(C)S(=O)(=O)Nc1ccc(Br)cc1F,10.1
12,Cc1ccc(C(=O)Nc2cnc3sc(C)nn3c2=O)cc1,11.4
13,Cc1c(CCC(=O)O)c(=O)oc2cc3occ(-c4ccc(F)cc4)c3cc12,9.48
14,C=C(C)C(=O)Nc1cccc(C2=NOC3(C2)C[C@@H](C(N)=O)N(C(=O)c2ccc(OC)cc2)C3)c1 (stereo partly shown),7.59
15,CSc1nc(SCC(=O)NCc2ccco2)c2c3c(sc2n1)CN(C)CC3,4.1
16,O=C(CCc1nnc(-c2ccccc2)o1)c1ccc(Cl)cc1,15.3
17,C[C@H](CCC(=O)O)[C@H]1CC[C@H]2[C@@H]3CC[C@@H]4C[C@H](O)CC[C@]4(C)[C@H]3C[C@H](O)[C@]12C,14.3
18,Cc1ccc(CN2C(=O)N/C(=C/c3ccc4c(c3)n(C)c(=O)n4C)C2=O)cc1,2.43
19,Cc1cccc(N(CC(=O)N2CCCC2)S(C)(=O)=O)c1,10.2
20,CCc1nn(CC(=O)NCCCN2CCOCC2)c(=O)c2cc3cc(F)ccc3n12,12.2
21,CC(=O)Nc1ccc(N=Cc2c(O)c3ccccc3oc2=O)cc1,15.7
22,Cc1cc(NC(=O)CSc2ccccc2)no1,14.2
23,Cc1cc(C(=O)OCC(=O)Nc2cc(Cl)ccc2C)c(C)o1,8.83

row,SMILES,"hERG current change (%, negative = inhibition) at 1uM [%]"
1,COc1ccc(S(=O)(=O)N2CCC(C(=O)NCc3ccc(C)cc3)CC2)cc1,8.1
2,CC(C)CN1CCC(=O)N([C@H](CSc2ccc(Br)cc2)c2ccccc2)CC1,-21.5
3,CC1(C)C(=O)Nc2ccccc2N1C(=O)COC(=O)c1ccc(Cl)c(S(=O)(=O)NCc2ccccc2)c1,6.97
4,COCc1cc(=O)[nH]c(-c2ccccc2OC(F)(F)F)n1,-16.7
5,O=C(COc1cc(Cl)c(Cl)cc1Cl)NCCN1CCOCC1,5.99
6,Cc1ccc(NC(=O)NC2CCCCC2)cc1Cl,13.4
7,Cc1cc(Br)cc(Cl)c1OC(=O)c1cnccn1,15.2
8,Cc1cccc(C)c1-n1c(C)cc(/C=C2\C(=O)NN(c3ccccc3)C2=O)c1C,1.9
9,Cc1c(CC(=O)NCCCC(=O)O)c(=O)oc2cc3oc4c(c3cc12)CCCC4,8.61
10,CC(=O)c1cccc(NC(=O)CSCc2ccc(Br)cc2)c1,11.2
11,COC(=O)c1c(NC(=O)c2cccnc2Cl)sc(C(=O)N(C)C)c1C,5.82
12,CCOC(=O)C1CCCN(C(=O)c2cc(S(=O)(=O)N3CCCCCC3)ccc2OC)C1 (stereo not shown),8.83
13,Cn1cccc1/C=N/N1CCN(Cc2cccc3ccccc23)CC1,12.2
14,C=C(C)Cn1c(SCC(=O)O)nnc1-c1ccccc1,6.79
15,O=C(N/N=C/c1cccnc1)c1ccc([N+](=O)[O-])cc1Cl,2.33
16,CC#CC(=O)N1CCC(Oc2cccc(C(=O)NCc3ccccn3)c2)CC1,12.9
17,Cn1c([N+](=O)[O-])cnc1COC(N)=O,16.2
18,Cc1cccc(OCCCC(=O)Nc2nccs2)c1,2.81
19,O=C(NCc1ccccn1)C(=O)NN=C1CCCCCCCCCCC1,6.18
20,CCCCn1nc2cc(C(=O)NC3CCc4ccccc43)ccc2c1OCC (stereo not shown),8.76
21,CCOn1c(=O)c(=O)n(O)c2ccccc21,24.4
22,CCc1ccc(NC(=O)CCc2c(C)nn(-c3ccc(N4CCCCC4)nn3)c2C)cc1,4.74
23,Cc1cccc(C)c1NC(=O)COc1ccc2c(C)c(Cc3ccccc3)c(=O)oc2c1C,9.84

row,SMILES,"hERG current change (%, negative = inhibition) at 1uM [%]"
1,CC(=O)NC(Cc1ccccc1)C(=O)NC1CCN(C(=O)c2ccc([N+](=O)[O-])cc2)CC1 (stereo not shown),6.04
2,CCOC(=O)c1cnc(Nc2nc3ccccc3o2)nc1C,-2.13
3,CCCCNC1=C(Br)C(=O)CC(C)(C)C1,10.6
4,CC(=O)Oc1ccc2nc(-c3cccs3)oc(=O)c2c1,6.01
5,COc1ccc(CCC(C)NCc2cc(OC)cc(OC)c2)cc1 (stereo not shown),3.19
6,COc1ccccc1C1C(C(C)=O)=C(O)C(=O)N1CCc1ccccc1 (stereo not shown),18.8
7,O=[N+]([O-])c1cccc(N(CC(O)CN2CCCC2)S(=O)(=O)c2ccccc2)c1 (stereo not shown),-25.9
8,Cc1csc(=O)n1CC(=O)OCc1nnc(-c2ccc(Cl)cc2)o1,15.6
9,COc1cc(NS(=O)(=O)c2ccc(NC(=S)NC(=O)c3ccc(F)c(F)c3)cc2)nc(OC)n1,13.7
10,CC(C(=O)Nc1ccccc1)N1C(=O)c2ccccc2C1=O (stereo not shown),12.8
11,O=C(NCc1ccncc1)C(=O)NCc1ccco1,4.61
12,CC1Cc2ccccc2N1CC(=O)Nc1ccc2c(c1)OC(F)(F)O2 (stereo not shown),9.18
13,COC(=O)c1ccc2nc(NC(=O)C(C)(C)C)sc2c1,0.391
14,O=C(CO/N=C/c1ccccc1O)N1CCc2ccccc21,4.34
15,COc1ccc(C(OC(=O)c2ccco2)C(=O)NCC2CCCO2)cc1 (stereo not shown),12.7
16,COc1ccc(-c2nnc(CSc3nc4ccccc4c(=O)n3CC3CCCO3)o2)cc1OC (stereo not shown),-5.79
17,CCCCCCC1C(C#N)=C(N)OC2=C1C(=O)CCC2 (stereo not shown),6.79
18,COn1c(SC2CCCCC2)nc2ccccc2c1=O,3.77
19,CC(=O)c1c(C)[nH]c(C(=O)OCC(=O)Nc2cccc(S(=O)(=O)N(C)C)c2)c1C,11.3
20,Cc1cc(SCC(=O)OCC(=O)N2CCN(C(=O)c3ccco3)CC2)c(C)cc1Br,6.43
21,CCOc1ccccc1Nc1nnc(SC(C)C(=O)Nc2nc(-c3ccccc3)cs2)s1 (stereo not shown),8.02
22,Cc1cc(C(=O)COC(=O)c2ccc3c(c2)NC(=O)CS3)c(C)n1CC1CCCO1 (stereo not shown),12.9
